Laboratory results from the supplement of paper PMC10126150.
Values marked as one replicate rest on one cluster of the flow cell; about a third of the high ones do not repeat.

Test system: ATP
Test: switch fluorescence ratio, 500 uM ATP over buffer (Cy3 cluster intensity, sum of 5 cycles each) (fold (ratio)); higher = stronger signal-on switching upon ATP binding; sequences stand for … in TCGTCGGCAGCGTCAGATGTGTATAAGAGACAGTTTTTTTTTTTTTTTTTTTTTTTTT…TC
Conditions: aptamer strand: ATP DNA aptamer (quencher-CACCTGGGGGAGTATTGCGGAGGAAGG + anchor), 100 nM annealed; ATP concentration: 500 uM; one replicate
In short: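 The quencher-labelled ATP aptamer, at 100 nM, was annealed to Cy3-labelled switching-strand clusters on a modified Illumina MiSeq flow-cell. The clusters were imaged in selection buffer, then after 15 min with 500 uM ATP at 22 °C, and this buffer/ATP cycle ran five times with NaOH stripping and re-annealing between runs. Per-cluster fluorescence ratios, summed target-cycle over summed buffer-cycle Cy3 intensity, were averaged per switch-domain sequence. Clusters outside 100-1000 RFU were excluded.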
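Also: ATP exposure 15 min at 22 °C before imaging.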

Sequence	switch fluorescence ratio
CTTTCACATG	0.987
CCAGGGCAAG	1.39
CGACGGACTG	1.07
TGCACTTTGG	1.05
CATACCGTAC	1.93
GTGAATAAGC	1.03
GGACGTCAAC	1.23
ATGTTCAAGT	0.985
TTGCTATGGA	1.03
AGAACTTGAT	1
ATAAAAGAGA	0.983
TAATTAGAAT	1
CGATGTGGAC	1.43
CGATTTGGCT	1.01
ATTGACAGAC	1.16
CTACCCGGGG	1.07
TCGAGATACA	0.991
ATGGGACTAT	0.991
ATATTTCTAG	1.04
CTAGACCAGT	1.02
TTTATGTTC	0.996
GGGGGTCCCA	0.99
CGTTCTTCAA	1.02
TATGGACTTG	1.06
CTCTTCGGTG	1.01
GGGTGATGAT	1.05

Sequence	switch fluorescence ratio
GAGATGGTC	0.973
CGCAGTTGAG	1.09
GTGGGGCATC	0.984
CTCCAACGCT	2.07
GTAGAAGTCG	1
CGGAAGCGCA	1.04
GACAAAAGCC	1.1
ATCAAATCTT	1.03
GATGATTGAT	1.03
TACTGAATCC	1.07
TAGGCCTTTC	1.33
CGTTACTCTA	1.18
CGCCTTGGTA	1.01
AGCATCCTT	0.971
GTAGATTCGT	1.01
TTAACAAGGG	0.987
CTACAAGGA	1.08
AACCCAAGCA	1.08
TTTTCATTGC	0.996
TTGTCGGTGC	1.11
TCCTTTATGA	1.03
GCGCGATATG	1.56
GTAGTCTGTA	0.98
GGCCTTTCCA	1.06
CGGTACCATG	1.02
ACGCCATAAT	1.2

Sequence	switch fluorescence ratio
TTTTGCGCAT	1.05
TAAATTATAC	1.1
CGCTCCGGTG	1.04
CATGAAAAGG	1.04
TTGTTTGAGC	0.972
TATGGAGGTG	1.05
TGCTCCACAC	2.19
CATCCAAGGT	1.13
TTTCTCTTCG	1.01
AGTCAGGTCA	0.977
ATTTCTACCT	1.2
AGGGTGAGCC	1
TGACCCTTGG	1.06
TGGGACCGGT	1.01
TCGTCGGGCT	1.02
CGGGGGCGG	0.992
GACATCGTTG	1
CATTGATGTC	1.03
CCAAGGCGCG	1.02
CTCTTATACT	1.04
AAGACTCAGC	0.993
AACGAATGTG	1.04
GCACTTTGGT	1
AGCCGACATT	1.1
CGAGTGTGGA	1.06
GACGCAGTAT	4.56

Sequence	switch fluorescence ratio
GCGGTTATGA	1.03
GCGGGGATAA	1.01
TCGCGAAACT	1.03
GAGATGACTT	1.07
AACTCGCCCC	1.08
CGTGGAAATG	1
GGTTTAACAT	0.992
GACTACTTG	1.04
GTAGGCACCT	1.02
TGGTTGCGGG	1.08
ATGTGTACAC	1.02
CGACAGTAGA	1.05
GTGTATACTC	1.05
ACCGAACACC	1.36
ATGTCTTTCT	1.04
GTGACCCATA	1.03
CATATACA	1.1
AAGGTTTGA	1.03
AAGCCTAAGA	1.02
AACATTCACT	1.06
AGTCGGACGT	0.971
TCCCTTTTAC	1.23
AATCGCGCCG	1.07
CTTATGTGC	0.907
GCGTTCACGT	0.972
GTGCGTTTGA	1.03

Sequence	switch fluorescence ratio
TATTTCCCGC	1.13
ATGGGTGAGC	0.981
TGGGCTAACT	1
GTATTGAGCT	0.966
ATCTTCTAA	1
TTTGAAGCTG	0.943
GCGTTGGTAT	0.998
GGAGGGTCAT	1.04
GCTAATGG	1.5
ACGAAGACAT	0.993
TGAACGGGCT	1.01
ACGAAAAACT	1.1
CGGTAGGACT	1.01
AGCATGCGTT	1.02
CCTGAGTGGC	1.16
GAATGTGGAC	1.03
AGAAACCTCC	2.46
TAGTGCAAGC	1.01
CGATTAATTT	0.982
GCGCTGTAGT	1.01
GGTAGTGGAA	0.988
ACGTGGCGTA	0.942
TCTGTTCATA	1.02
TCACATAATA	1.06
GCAGCTGTGA	0.997
CCCGGGGACT	1.34

Sequence	switch fluorescence ratio
AGAATGGAAT	0.989
TGTGAAGACG	0.983
AGGCTGGATT	0.978
GCAGGCTGCT	0.981
CCATAAAATC	0.997
AGGACTCAGA	1.04
CGAGCTTACT	1.86
CAGCACTGAC	1.76
ACAAACACGG	1.34
CTATACGAGG	1.03
AATAAGGCGG	0.987
TCAACATGCA	0.99
GGGGCATATG	1.01
TCACTTGCTT	0.981
ATCTCTCTTG	0.988
ACACCCGTGT	1.03
CGATCCCGAC	1.05
GAACGAGCAT	1.2
GCAGCGGGAG	1.05
TAGCGGGTC	1.05
TTTATCTCAG	1.01
GACTTTACCG	0.95
CCCCATCGAT	1.03
TGGCGTTACC	1.03
CAAGCGAACC	1.08
TCGGGGATT	0.993

Sequence	switch fluorescence ratio
GAGTATATAG	1.01
CGCTTTGGCT	0.974
TGATCGCGGA	0.971
TTGGTATCGG	0.997
GCGGCTGACA	1.03
ACGATTTTGA	0.987
GGCCTGTCAT	0.996
TCGCATGGTT	1.07
CTGGTTTACC	0.972
AATATCGACG	1.03
AGGTATTTAT	1.01
GCATCTCTAT	0.959
AAGGCGACTG	0.968
GTACTAAACT	1.11
TATACGCGAT	2.9
AGCGATCCCC	2.02
ATGGTGGTTC	1.01
GCGCGGTTCG	1.06
TTAAGACTCT	0.974
GACGTATTCA	0.996
GAACCTGGTC	1.21
GAGCTACGT	1.01
GTGCAGCAAC	1.27
GCGTACATGA	0.991
AGAGGTTTT	0.969
ACCTGATAAT	1.03

Sequence	switch fluorescence ratio
GCCAACCGCA	1.38
GTAGGTGCAG	0.929
ATAGGATAAA	0.976
GAGGTAGAAT	1.02
TATTGATACC	1.03
CTGTACTGCA	1.16
GAAGGGA	1
GTTCGATGCG	0.994
ACGGCGAGAC	3
TACCGCCAAG	1.17
CAGAGTATTG	0.963
AGATAGCCGA	0.973
TATGTAACGC	1
ACGGTTAAGC	1.06
GGACGTAATC	4.31
TGCCCCGTCC	1.05
AGTCCCACTT	1.15
ATGCGACGTT	0.964
AAGTACACGG	1.16
